The text below walks through data of publication PMC9579167, “Structure of the proteolytic enzyme PAPP-A with the endogenous inhibitor stanniocalcin-2 reveals its inhibitory mechanism” (Nature Communications, 2022).

This experiment addresses T1, wild-type human PAPP-A (human, UniProt Q13219 82-1627).
T1 construct: PAPP-A (pappalysin-1), human, wild type; Homodimer via C1210; also called dimeric PAPP-A; pcDNA3.1-PAPP-A; source: 293T cells, transient transfection, conditioned medium
Kind of experiment: enzyme inhibition kinetics (Morrison Ki equation, competitive inhibition); inhibition of PAPP-A (50 pM) cleavage of 125I-IGFBP-4 (10 nM) with IGF2 (100 nM) by STC2(C120A); 50 mM Tris-HCl, 100 mM NaCl, 1 mM CaCl2, pH 7.5, 37 °C.

T1 sequence (Q13219 82-1627): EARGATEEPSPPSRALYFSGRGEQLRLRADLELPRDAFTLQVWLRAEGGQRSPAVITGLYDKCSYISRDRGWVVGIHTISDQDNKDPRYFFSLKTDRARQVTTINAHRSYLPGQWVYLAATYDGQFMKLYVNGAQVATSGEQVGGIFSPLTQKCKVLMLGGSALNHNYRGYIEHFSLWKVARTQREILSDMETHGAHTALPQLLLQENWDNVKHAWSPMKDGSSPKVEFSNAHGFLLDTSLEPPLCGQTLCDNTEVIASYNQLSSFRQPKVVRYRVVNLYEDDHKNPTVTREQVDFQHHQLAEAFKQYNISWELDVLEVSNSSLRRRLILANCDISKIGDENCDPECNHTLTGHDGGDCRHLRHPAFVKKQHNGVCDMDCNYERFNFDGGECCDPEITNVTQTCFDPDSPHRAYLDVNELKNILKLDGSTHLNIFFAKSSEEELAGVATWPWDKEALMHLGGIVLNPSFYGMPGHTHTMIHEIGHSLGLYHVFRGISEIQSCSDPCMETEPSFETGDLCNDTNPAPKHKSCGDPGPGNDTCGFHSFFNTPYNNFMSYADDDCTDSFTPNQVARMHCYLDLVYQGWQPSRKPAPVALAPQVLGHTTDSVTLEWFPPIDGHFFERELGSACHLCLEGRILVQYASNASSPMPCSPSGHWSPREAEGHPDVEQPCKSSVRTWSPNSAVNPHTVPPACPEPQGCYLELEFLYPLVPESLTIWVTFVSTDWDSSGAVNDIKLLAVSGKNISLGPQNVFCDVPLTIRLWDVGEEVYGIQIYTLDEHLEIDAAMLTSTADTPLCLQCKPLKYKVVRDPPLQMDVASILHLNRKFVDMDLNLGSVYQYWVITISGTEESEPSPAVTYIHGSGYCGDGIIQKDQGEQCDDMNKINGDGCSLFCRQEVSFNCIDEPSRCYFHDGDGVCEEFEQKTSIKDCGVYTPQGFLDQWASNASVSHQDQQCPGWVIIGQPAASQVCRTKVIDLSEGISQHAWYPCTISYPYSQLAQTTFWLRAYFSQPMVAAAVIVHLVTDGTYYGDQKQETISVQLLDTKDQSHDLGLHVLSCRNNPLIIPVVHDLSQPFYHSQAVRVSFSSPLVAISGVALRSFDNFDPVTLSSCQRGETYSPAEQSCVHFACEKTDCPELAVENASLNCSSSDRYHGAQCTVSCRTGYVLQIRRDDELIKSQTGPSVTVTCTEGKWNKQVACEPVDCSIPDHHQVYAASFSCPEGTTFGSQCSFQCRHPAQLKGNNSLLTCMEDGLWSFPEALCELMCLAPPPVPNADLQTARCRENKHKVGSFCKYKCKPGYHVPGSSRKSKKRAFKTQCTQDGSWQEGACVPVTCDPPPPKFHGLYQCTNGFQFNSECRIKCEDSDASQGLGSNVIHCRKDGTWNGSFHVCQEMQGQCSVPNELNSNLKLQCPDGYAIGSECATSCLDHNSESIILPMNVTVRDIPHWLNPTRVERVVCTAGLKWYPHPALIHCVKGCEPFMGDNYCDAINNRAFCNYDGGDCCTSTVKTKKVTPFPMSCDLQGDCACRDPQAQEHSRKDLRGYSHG

B1: STC2 variant with C120 replaced by alanine (natural protein)
chain: not shown
notes: stanniocalcin-2, human; also called STC2(C120A); STC2_C120A; source: 293T cells, transient transfection
In general, Ki refers to a dissociation constant, usually derived from enzyme kinetics or from competition with a known ligand. Read a high Ki as a looser hold on the target. Molecule B1 showed a Ki of 47.3 nM.
